Experimental data published in the supplement of paper PMC7826260.
This is one part of the list. The data describe in vitro nicking of single-stranded DNA by Rep domains at 3 µM enzyme and 37 °C for 1 h; the strands have 90 letters, of which the middle is given. Values are log2 of uncut reads against the no-enzyme pool; uncut sequences lie near 0, cut ones below; no hit call is given. Shares of all reads are compared; where an enzyme cuts many sequences, the uncut ones exceed 0.

The sequences below were run on T1, Rep nickase domain of porcine circovirus 2 (assay: uncleaved DNA left, log2 of reads against the no-enzyme library (log2 ratio); higher = less cleavage (more negative = more Rep cleavage of the k-mer); sequences stand for … in CTCGTCCG…ACCGGAGA).
T1 sequence (residues 2-116, tag not shown): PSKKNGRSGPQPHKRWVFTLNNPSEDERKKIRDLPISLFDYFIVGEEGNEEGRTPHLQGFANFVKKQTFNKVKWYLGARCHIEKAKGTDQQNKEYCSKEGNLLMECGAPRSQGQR
Protocol: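 A pool of 90-nt single-stranded DNAs with seven random bases just before the constant AC of the nick site (name = the seven bases) was cut by 3 µM recombinant His6-SUMO-tagged Rep nickase domain (300 nM DNA, 50 mM HEPES pH 8.0, 50 mM NaCl, 1 mM MnCl2, 1 h, 37 °C, three replicates). Uncut DNA was amplified and sequenced.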
With TCTAGCG the “uncleaved DNA left (log2)” value was 0.132. In the case of TATCAAA, the “uncleaved DNA left (log2)” value was 0.0747. For CTTTGAA, the “uncleaved DNA left (log2)” value was -0.0556. With AATGGGA the “uncleaved DNA left (log2)” value was 0.122. For CCGCACT, the “uncleaved DNA left (log2)” value was -0.207. With CTAGCTA the “uncleaved DNA left (log2)” value was -0.112. In the case of TCGTTGC, the “uncleaved DNA left (log2)” value was 0.0568. CCTACCC was tested, and the “uncleaved DNA left (log2)” value was -0.838. In the case of TAGAGCG, the “uncleaved DNA left (log2)” value was 0.0155. With GAAGGGG the “uncleaved DNA left (log2)” value was 0.171. For ACGTAGA, the “uncleaved DNA left (log2)” value was 0.138. TGTCTAG was tested, and the “uncleaved DNA left (log2)” value was 0.00275. For CGGGACG, the “uncleaved DNA left (log2)” value was 0.275. For CTCGCAC, the “uncleaved DNA left (log2)” value was 0.045. For TGAATGT, the “uncleaved DNA left (log2)” value was -0.0319. With AATGCAT the “uncleaved DNA left (log2)” value was -0.192. In the case of ACCACAA, the “uncleaved DNA left (log2)” value was 0.0449. With CGTCGAT the “uncleaved DNA left (log2)” value was -0.0463. GGTAGGC was tested, and the “uncleaved DNA left (log2)” value was 0.0964. In the case of GTTCGAC, the “uncleaved DNA left (log2)” value was 0.0885. With CGGCTGA the “uncleaved DNA left (log2)” value was 0.0663. In the case of CCTGCAG, the “uncleaved DNA left (log2)” value was -0.145. With GCCAGTA the “uncleaved DNA left (log2)” value was 0.132. CTAGGCC was tested, and the “uncleaved DNA left (log2)” value was -0.11. With GCCGCCC the “uncleaved DNA left (log2)” value was -0.0205. With TATGTCT the “uncleaved DNA left (log2)” value was -0.864. In the case of CGAGATT, the “uncleaved DNA left (log2)” value was -0.611. For TCTAACC, the “uncleaved DNA left (log2)” value was -1.02. In the case of ATCGCGG, the “uncleaved DNA left (log2)” value was 0.0421. For AGGAGAA, the “uncleaved DNA left (log2)” value was 0.189. GGCGATG was tested, and the “uncleaved DNA left (log2)” value was 0.0953. GATATTT was tested, and the “uncleaved DNA left (log2)” value was -1.76. In the case of AGTAATG, the “uncleaved DNA left (log2)” value was 0.15. With GCTAGTA the “uncleaved DNA left (log2)” value was -0.0103. For TGCCGGA, the “uncleaved DNA left (log2)” value was 0.0611. In the case of GTCTAAG, the “uncleaved DNA left (log2)” value was 0.299. With CCTCTTC the “uncleaved DNA left (log2)” value was 0.111. For CCACTGA, the “uncleaved DNA left (log2)” value was 0.0921. In the case of ATGACGG, the “uncleaved DNA left (log2)” value was 0.123. With CAGAGTC the “uncleaved DNA left (log2)” value was -0.0208.
